# Assay results taken from PubChem BioAssay AID1345083 (National Center for Advancing Translational Sciences (NCATS), 2018).
# Screen size: about 94,000 compounds; about 6,200 (6.6%) were called active. Inconclusive means that the source gave no clear call. Such entries were picked first, then a sample of the others. Calls come from the whole dose curve; as a rule, active = well fitted inhibition curve with a large enough effect; inconclusive = small, poorly fitted or top-dose-only effect; inactive = flat fitted curve, though single readings scatter. Where the call is inconclusive, the potency comes from a doubtful curve fit.
# Test: Cytotoxic Profiling in HEK 293 Cell Line of Diverse Libraries Using Quantitative High-Throughput Screening; note: nearly all actives have a fitted effect of over 60% in size
# Conditions: HEK 293 viability, ATP luminescence (CellTiter-Glo), 48-72 h; activity change, negative = cytotoxicity: at 115 µM (top of the series) unless noted; series mostly up to 115 µM
# In short: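 HEK 293 cells seeded at 250 cells/well were exposed to compound for 48 or 72 hr at 37 degree Celsius. Viability taken as ATP content by CellTiter-Glo luminescence.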
# % is set by controls: 0 for no effect and ±100 for the full control effect; potency is the fitted concentration of half-maximal effect; tags give direction and shape of the fitted curve.
Compound,Potency,outcome,"activity change, negative = cytotoxicity"
CN(C)c1nc2c(c(=O)[nH]1)CCN(Cc1cccc(Cl)c1)CC2,"inconclusive: 79.4 µM [inhibitor, single point]",,
COc1cccc(-c2cc3c(=O)n(CCNC(=O)c4nn(C)c5ccccc45)ccn3n2)c1,"inconclusive: 31.6 µM [inhibitor, full curve, poor fit]",,
Cc1ccc(-c2nc(C(=O)N(C)Cc3ccccc3)no2)cc1,"inconclusive: 89.1 µM [inhibitor, single point]",,
CC(=O)NCc1nnc2n1C(C(=O)Nc1ccc(F)cc1)CC2 (stereo unspecified),,inactive [at 172 µM],
CN(C)c1ccc(C(=O)N[C@H]2CO[C@H]3[C@@H]2OC[C@@H]3n2cc(CC3CCCCC3)nn2)cc1,"inconclusive: 89.1 µM [inhibitor, single point]",,
COC(=O)c1ccc2nc(C[C@@H]3C[C@@H](C(C)C)[C@H](CNC(=O)CCC(=O)O)C=C3C)[nH]c2c1,,,inactive: -12.9%
COc1cc(OC)c(-c2nc3ccc(-c4ccc(OC)c(OC)c4OC)cc3o2)cc1OC,"inconclusive: 56.2 µM [inhibitor, partial curve, poor fit]",,
CCn1cc(-c2cc(-c3ccccc3OC)nc3c(C)noc23)cn1,"inconclusive: 100 µM [inhibitor, partial curve]",,
Cc1ccc(NC(=O)c2cc3n(n2)CC(c2ccc(Cl)cc2)OC3)cc1F (stereo unspecified),"inconclusive: 79.4 µM [inhibitor, single point]",,
O=C1[C@H]2CN(Cc3cccc(Cl)c3F)C[C@H]2C(=O)N1Cc1ccc2c(c1)OCO2,"inconclusive: 79.4 µM [inhibitor, single point]",,
CCc1nnc([C@@H]2CC(F)(F)CN2C(=O)COc2ccccc2)o1,,,inactive: -0.56%
Cc1nnc2ccc(N3CCC(NC(=O)NC4CCCC4)CC3)nn12,,inactive,
CCOc1cc(=O)n2c(c1C(=O)Nc1ccc3c(c1)OCO3)CCCC2,"inconclusive: 56.2 µM [inhibitor, partial curve, poor fit]",,
COc1ccc(C2(C(=O)N3CCC(Oc4ccc(-c5noc(C)n5)cc4)C3)CC2)cc1 (stereo unspecified),"inconclusive: 50.1 µM [inhibitor, partial curve, poor fit]",,
O=C(Nc1ccccc1)N1CCc2nc(-c3ccc(Cl)cc3)nc(-c3ccccc3)c2C1,"inconclusive: 31.6 µM [inhibitor, full curve]",,
O=C(NCc1cccs1)c1ccc2c(c1)OCCN(c1ccccc1)C2,"inconclusive: 11.2 µM [inhibitor, full curve, poor fit]",,
O=C(CCc1c[nH]c2ccccc12)N1CCC[C@H]1c1nc(-c2ccc(F)cc2)n[nH]1,active: 39.8 µM,,
CC(=O)c1ccc(NC(=O)O[C@@H]2CO[C@H]3[C@@H]2OC[C@@H]3Nc2nccc(-c3ccco3)n2)cc1,active: 22.4 µM,,
CC(C)CNc1ccc2c(n1)C(C)(C(=O)N1CCC1)CN(Cc1ccccc1)C2 (stereo unspecified),"inconclusive: 79.4 µM [inhibitor, partial curve, poor fit]",,
CC(C)OCCCNC(=O)C1CCCCC(=O)N1 (stereo unspecified),,,inactive: -18.1%
COc1cc(NC(=O)Nc2nc3c(s2)C[C@]2(C)CC[C@@H]4[C@H](OC(=O)[C@H]4C)[C@H]2[C@@H]3C)cc(OC)c1,"inconclusive: 14.1 µM [inhibitor, full curve, poor fit]",,
CC1=C(C(=O)OC(C)C)C(c2cccs2)N2C(CC(=O)NC3CC3)=CSC2=N1 (stereo unspecified),"inconclusive: 89.1 µM [inhibitor, partial curve, poor fit]",,

Compound,Potency,outcome,"activity change, negative = cytotoxicity"
O=C(NC1CCN(c2cc(-c3cccs3)[nH]n2)CC1)c1ccccc1F,"inconclusive: 89.1 µM [inhibitor, single point]",,
NC(=O)c1ccc(OC2CCN(Cc3ccccn3)C2)nc1 (stereo unspecified),,,inactive: -16.1%
c1cc(-c2cc3c(ccn3Cc3ccncc3)c(N3CCOCC3)n2)c2cc[nH]c2c1,active: 31.6 µM,,
COc1cccc(-c2nc3cc4c(cc3cc2CN2CCSCC2)OCO4)c1OC,active: 22.4 µM,,
CN1CC(=O)N(C2CCCCC2)Cc2c(NCc3cccs3)ncnc21,"inconclusive: 89.1 µM [inhibitor, single point]",,
c1cnc(Oc2cccc(CN(Cc3ccsc3)CC3CCCO3)c2)nc1 (stereo unspecified),"inconclusive: 35.5 µM [inhibitor, partial curve]",,
CCc1nc2cc(N3CCC(C(=O)NCc4ccc5c(c4)OCO5)CC3)cnc2nc1CC,,,inactive: -2.38%
CCNc1nccc(N2CCC(CC(=O)NCc3ccc(OC)c(OC)c3)CC2)n1,"inconclusive: 50.1 µM [inhibitor, partial curve, poor fit]",,
CC(=O)c1cccc(NC(=O)Cn2c(-c3ccccc3)nc(C)cc2=O)c1,"inconclusive: 89.1 µM [inhibitor, single point]",,
COc1ccc(NC(=O)N[C@H]2[C@H](O)[C@@H](Sc3ccccc3)[C@@H]3OC[C@H]2O3)cc1,"inconclusive: 126 µM [inhibitor, single point]",,
O[C@@H]1C[C@@H](c2nc(-c3ccc4c(c3)OCO4)no2)N(CCCc2ccccc2)C1,"inconclusive: 126 µM [inhibitor, single point]",,
Cc1ccc(CCN2CCCCC23Cc2ccccc2CN([S+](C)(=O)[O-])C3)cc1 (stereo unspecified),active: 79.4 µM,,
CCOC(=O)C1CCCN(C(=O)c2cc(C(C)(C)C)nc3c2cnn3C)C1 (stereo unspecified),"inconclusive: 63.1 µM [inhibitor, partial curve, poor fit]",,
CC(=O)N1CCCN(c2ncnc3c2CN(c2ccc([N+](=O)[O-])cc2)C(=O)N(C)C3)CC1,,,inactive: 4.46%
NC1CCc2nn(CC(=O)N(Cc3ccccc3)Cc3ccco3)c(=O)n2CC1 (stereo unspecified),,,inactive: -9.14%
OCC1CN(C2CCC2)CC12CCN(Cc1ccsc1)CC2 (stereo unspecified),active: 89.1 µM,,
FC(F)(F)c1ccc(CN2CCCC3(CC(c4cccc(C(F)(F)F)c4)=NO3)C2)cc1 (stereo unspecified),"inconclusive: 100 µM [inhibitor, single point]",,
O=C(c1ccc2nnc(-c3ccc(C(F)(F)F)cc3)n2c1)N1CCCC1,,,inactive: -22.3%
O=C(Nc1ccc(F)cc1)C1CCc2nc(N3CCN(C(=O)C4CCC4)CC3)sc2C1 (stereo unspecified),active: 10 µM,,
O=C1CC(c2noc(-c3ccc(F)cc3)n2)CN1c1ccc(Cl)cc1 (stereo unspecified),"inconclusive: 56.2 µM [inhibitor, partial curve, poor fit]",,
O=C(Nc1cccc(Cl)c1)c1ccc2oc(-c3ccnc(Cl)c3)nc2c1,"inconclusive: 35.5 µM [inhibitor, partial curve, poor fit]",,
O=[S+]1([O-])c2cccnc2OC(Cn2cccc2)CN1Cc1cccc(F)c1 (stereo unspecified),"inconclusive: 31.6 µM [inhibitor, partial curve, poor fit]",,

Compound,Potency,outcome,"activity change, negative = cytotoxicity"
COc1ccc(CN2CCNc3cnc(OCc4cccnc4)cc3C2)cn1,"inconclusive: 100 µM [inhibitor, partial curve]",,
O=C(c1c[nH]c2ccccc12)N1CCC2(CC1)CNS(=O)(=O)c1cccnc1O2,,,inactive: -16.6%
CN1CCC(C(=O)N2Cc3ccccc3CC3(CCCN3C)C2)CC1 (stereo unspecified),,inactive,
C[S+](=O)([O-])CCn1ncc2cc(OCc3cccc(-c4cccc(CO)c4)c3)ccc21,active: 50.1 µM,,
C[C@@H]1C(=O)O[C@H]2[C@H]1CC[C@@]1(C)Cc3sc(Nc4ccc(F)cc4)nc3[C@@H](C)[C@H]21,,inactive [at 172 µM],
CCCCc1cc(C[C@@H]2C[C@H](NC(=O)C(C)(C)C)C2(C)C)no1,active: 70.8 µM,,
O=[S+]1([O-])NC2(CCN(CC3CCCCC3)C2)CNc2ccccc21 (stereo unspecified),"inconclusive: 50.1 µM [inhibitor, partial curve, poor fit]",,
COc1cc2c(cc1OC)C(C[C@H]1CN(C(=O)c3cccn3C)CC[C@H]1CC(=O)O)=NCC2,,,inactive: 3.23%
O=C1Nc2ccccc2O[C@H]2C[C@@H]1N(Cc1ccc3ccccc3n1)C2,"inconclusive: 126 µM [inhibitor, single point]",,
COc1cccc(CN2CCC(F)(C(=O)N3CCCC3)CC2)c1OC,"inconclusive: 28.2 µM [inhibitor, partial curve, poor fit]",,
CCc1noc(C)c1C(=O)N1CCC(c2[nH]ncc2-c2ccccc2C)CC1,"inconclusive: 50.1 µM [inhibitor, partial curve, poor fit]",,
COCc1noc(CCNc2cc(C)nc(-c3ccccc3O)n2)n1,"inconclusive: 79.4 µM [inhibitor, partial curve]",,
CC(=O)NC1(C)CN(Cc2ccc(-c3cccc(C(F)(F)F)c3)s2)C1,active: 63.1 µM,,
CSCCNC(=O)c1ccc2nnc(-c3cccc([S+](C)(=O)[O-])c3)n2c1,,,inactive: -13.7%
CCOC(=O)c1ccccc1NC(=O)CN1C(=O)NC2(CCCCC2)C1=O,"inconclusive: 12.6 µM [inhibitor, full curve]",,
CN1C(=O)C2(CCN(C(=O)c3cc4c(s3)CCCC4)CC2)c2ccccc21,"inconclusive: 50.1 µM [inhibitor, partial curve, poor fit]",,
COc1ccc(Cn2c(C3CCN(C(=O)c4cccc(C)c4)CC3)n[nH]c2=O)cc1,,,inactive: -5.9%
COc1cccc(S(=O)(=O)N2CCN(C3CCN(CCC(C)C)C3=O)CC2)c1 (stereo unspecified),,,inactive: -3.18%
CCn1nc(C)c(-c2cc(C(=O)NCCc3noc(COC)n3)no2)c1C,"inconclusive: 89.1 µM [inhibitor, partial curve]",,
Cc1ccc(N2Cc3c(ncnc3N3CCN(C)CC3)N(C)CC2=O)cc1,,,inactive: -4.68%
CC(=O)N1CCC(n2c(C)cnc2-c2ccccc2)CC1,,,inactive: -7.85%
CCN(C)C(=O)CCc1c(C)nn(-c2ccccc2)c1Oc1ccc(F)cc1F,"inconclusive: 39.8 µM [inhibitor, partial curve, poor fit]",,
